#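 How tested: cells in 96-well plates exposed to compound for 48 hours at five concentrations. GI50 = concentration required for 50% inhibition of growth.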 Active and inactive are the calls of the source. Cut-off read from the data, not from the text of the source: active = GI50 up to about 1.1 µM and inactive = higher.
# Test system: NCI-H322M
# Assay: NCI anticancer screen, dose series, 48 h
row,SMILES,GI50
1,COc1ccc(C(SCCO)(c2ccc(OC)cc2)c2ccc(OC)cc2)cc1,inactive: 24.8 µM
2,C/C=C/c1cc2c(c(=O)o1)C(=O)[C@@H](O)[C@H](C)O2,inactive: 22 µM
3,C[N+]1(c2ccccc2)C=C(c2ccccc2)SC1=S (configuration not stated),inactive: > 100 µM
4,O=C(Nc1ccccc1)c1cc2c(cc1Cl)Sc1nccn1S2(=O)=O,inactive: 20.2 µM
5,CCCc1nc(Cl)nc(Cl)c1Cl,inactive: 1.29 µM
6,C=C1C(=O)O[C@@H]2C[C@@H](C)[C@@H]3[C@@H](OC4OC(COC(C)=O)C(O)C(O)C4O)CC(=O)[C@@]3(C)C[C@H]12 (some centres not stated),inactive: 14.1 µM
7,C/C(=N/NS(=O)(=O)c1c(C)cc(C)cc1C)c1cccc[n+]1[O-],inactive: > 100 µM
8,CC(=O)c1ccc(NC(=O)COC(=O)c2cccc3c(=O)c4ccccc4[nH]c23)cc1,inactive: 81.3 µM
9,COc1c2occc2c(N)c2ccc(=O)oc12,inactive: > 100 µM
10,C1CCCN(NC2=NCCO2)CC1,inactive: > 100 µM
11,O=C1C(=C/C=C2/SC(c3ccccc3)(c3ccccc3)c3ccccc32)C(=O)c2ccccc21,inactive: > 100 µM
12,C=CCN1C(=O)/C(=C/c2cccs2)N=C1SC/C=C/C,inactive: 68.4 µM
13,COC(=O)C(C(=O)C(=O)Nc1ccc(C)cc1C)c1csc(-n2nc(-c3ccccc3)cc2-c2ccccc2)n1 (configuration not stated),inactive: > 100 µM
14,O=C(/C=c1\oc(=O)/c(=C/C(=O)c2ccc(Cl)cc2)oc1=O)c1ccc(Cl)cc1,inactive: > 100 µM
15,O=C1CC(c2cccc(Cl)c2)n2cccc21 (configuration not stated),inactive: > 100 µM
16,NCCCCNCCCN1CCOC1=O,inactive: > 100 µM
17,COc1cc(N(CCC#N)CCC#N)ccc1C(/N=N/c1cccc([N+](=O)[O-])c1)=N\NC(=O)c1ccc(C)cc1,inactive: > 100 µM
18,C=C1CC[C@@]2(C)[C@@H]([C@@H]1C)[C@H]1CC[C@@H]3[C@@]4(C)CC[C@H](O)C(C)(C)[C@@H]4CC[C@@]3(C)[C@]1(C)C[C@@H]2O,inactive: 2.4 µM
19,Cc1ccc(S(=O)(=O)N2CCNCCN(S(=O)(=O)c3ccc(C)cc3)CCNCC2)cc1,inactive: 20.3 µM
20,CC1=CCC2CC1NC(=O)CCOCCC(=O)NC2(C)C (configuration not stated),inactive: > 100 µM
21,N#Cc1ccccc1-c1nc2c3c(c(N)ccc3n1)C(=O)c1ccccc1-2,inactive: 71.1 µM
22,CCOC(=O)C(NCc1cccc(C(F)(F)F)c1)(NC(=O)CC)C(F)(F)F (configuration not stated),inactive: > 100 µM

row,SMILES,GI50
1,CSC(=S)N(C)C [CYSTOGON],inactive: > 100 µM
2,CC1(C)CCCCCCCCCC2CC2CCC(C)(C)C1=O (configuration not stated),inactive: 21.3 µM
3,O=C1C[C@@H](C(=O)OCc2ccccc2)NC(=O)C[C@@H](C(=O)OCc2ccccc2)NC(=O)C[C@@H](C(=O)OCc2ccccc2)N1,inactive: > 100 µM
4,COc1ccc(N2C(=O)C3c4[nH]c5ccccc5c4C4CCC(c5ccccc5)CC4C3C2=O)cc1 (configuration not stated),inactive: > 62.7 µM
5,COC(=O)c1c(C)oc2ccc(OC(C)=O)cc12,inactive: > 100 µM
6,CCN(CC)c1ccc2cc(-c3nc(O)c4ccccc4n3)c(=N)oc2c1,inactive: > 100 µM
7,O=C(Nc1ccc(Cl)cc1)C(=O)C1=C(O)c2ccccc2OC1,inactive: > 100 µM
8,CC(=O)Oc1c(OC(C)C)cc(=O)n2ccsc12,inactive: > 100 µM
9,CCOC(=O)C1=C(Nc2ccccc2)SCC1=O,inactive: > 100 µM
10,CCOC(=N)CC(=O)Nc1cccc(C)c1C,inactive: > 100 µM
11,CCCCc1nccc2c(C)c3[nH]c4ccccc4c3cc12,inactive: 4.88 µM
12,O=S(=O)(N/N=C/c1ccc(Cl)cc1Cl)c1ccccc1,inactive: > 100 µM
13,O=C(N/C=C1\C(=O)Oc2ccccc2C1=O)NC1CCCCC1,inactive: 29 µM
14,Cc1ccc(SC2C(=O)C3CC(OCc4ccccc4)C2(C)C3(C)C)cc1 (configuration not stated),inactive: > 100 µM
15,Cc1cc(S(=O)(=O)[N-]C(=C(C#N)C#N)[n+]2ccc(N(C)C)cc2)c(SCC(=O)O)cc1Cl,inactive: 94.8 µM
16,O=C1C(Cl)=C(NCCN2CCOCC2)C(=O)c2ncccc21,inactive: 1.44 µM
17,COc1ccc2c(c1)-c1c(c3cc(OC)ccc3n1CCCN(C)C)CC2,inactive: 9.68 µM
18,CCN(CC)CCOCCOCC1(c2ccc(Cl)c(Cl)c2)CCCCC1,inactive: 13.4 µM
19,CCCCCc1cc2c(cc1O)CC[C@@H]1[C@@H]2CC[C@]2(C)[C@@H](O)CC[C@@H]12,inactive: 13.4 µM
20,COC1=C(C)C(=O)C2=C(C1=O)C1C3CC4=C(C(=O)C(OC)=C(C)C4=O)C(CNC(=O)C(C)=O)N3C(C#N)C(C2)N1C (configuration not stated),active: 0.0347 µM
21,CCCCCCCCCCCCCCCC(=O)OCC1OC(n2cc(F)c(=O)[nH]c2=O)C(NC(=O)OCc2ccccc2)C(O)C1O (configuration not stated),inactive: 20.5 µM
22,N#CC1=C(N)N2C(=O)/C(=C/c3ccccc3)SC2C(c2nc3ccccc3[nH]2)=C1c1ccccc1 (configuration not stated),inactive: 2.47 µM

row,SMILES,GI50
1,Nc1ccn([C@H]2CO[C@@H](CO)O2)c(=O)n1,inactive: > 100 µM
2,COc1ccccc1NC1Oc2cc3c(cc2C(c2cc(OC)c(OC)c(OC)c2)C1C)OCO3 (configuration not stated),inactive: 5.87 µM
3,O=C(/C=C1\Nc2ccc([N+](=O)[O-])cc2N=C1NC12CC3CC(CC(C3)C1)C2)c1ccccc1,inactive: > 10 µM
4,C=C1CC/C=C(/C(=O)O)CC[C@H]2[C@@H]1CC2(C)C,inactive: > 100 µM
5,NC(=O)CN1CCN(c2nc(N3CCCC3)c3nc(Cl)c(NCc4ccccc4)nc3n2)CC1,inactive: 12.4 µM
6,Cc1cc2c(c3c1c1ccccc1n3C)C(=O)c1ccccc1C2=O,inactive: > 100 µM
7,C=CCNC(=S)N/C=C1\C(=O)Oc2ccccc2C1=O,inactive: 50.6 µM
8,Cc1nc(N)c(N2CCN([N+](=O)[O-])CC2)c(O)n1,inactive: > 100 µM
9,COCCCN(Cc1cc(OC)c(OC)c(OC)c1)C(=S)Nc1cccc(Cl)c1,inactive: 26.1 µM
10,Cc1ccc(S(=O)(=O)NC(=O)NCC(=O)NCC(=O)O)cc1,inactive: > 100 µM
11,C[C@]12CCC(=O)C(O)=C1CCC2=O,inactive: > 100 µM
12,CCc1cc(=O)n(/C(C)=C/c2ccccc2)n1C,inactive: > 100 µM
13,COc1cc2ccc1NC(=O)N1CCN(CC1)C(=O)Nc1ccc(cc1OC)-c1ccc(c(OC)c1)NC(=O)N1CCN(CC1)C(=O)Nc1ccc-2cc1OC,inactive: > 100 µM
14,O=C(Nc1ccccc1)OCc1nc2c([nH]1)C(=O)C=CC2=O,inactive: 13.8 µM
15,Cc1nc2c(n1-c1ccccc1)C(=O)c1ccccc1C2=O,inactive: 70.6 µM
16,CCOC(=O)C(NC(=O)Nc1ccccc1F)(OC)C(F)(F)F (configuration not stated),inactive: > 100 µM
17,O=C(Nc1nc(C23CC4CC(CC(C4)C2)C3)cs1)c1cc2ccc(O)cc2oc1=O,inactive: 17.1 µM
18,COc1cc(OC)nc(-n2c(N)c(C(=O)O)c3ccc([N+](=O)[O-])cc3c2=O)n1,inactive: > 100 µM
19,O=c1oc2ccccc2c2c(=O)c3ccc(OC/C(=N/O)c4ccc(Cl)cc4)cc3oc12,inactive: 7.55 µM
20,CCOC(=O)c1c(N)nn2c1cc1cccccc12,inactive: 34.1 µM
21,Cn1nc(C(=O)N2CC(CCl)c3c2cc([N+](=O)[O-])c2ccccc32)cc1NC(=O)Nc1cc(C(=O)N2CC(CCl)c3c2cc([N+](=O)[O-])c2ccccc32)nn1C (configuration not stated),inactive: > 100 µM
22,O=C1/C(=C/c2ccc(Cl)c(Cl)c2)CNC/C1=C\c1ccc(Cl)c(Cl)c1,inactive: 17.9 µM

row,SMILES,GI50
1,C=C1[C@H](OCC(C)C)[C@@H](OC(=O)C(C)CC)[C@@H](O)C(C)(C)/C=C/[C@H](C)C(=O)[C@@]2(O)C[C@H](C)[C@H](O)[C@@H]2[C@H]1OC(=O)C(C)CC (some centres not stated),inactive: 6.93 µM
2,CC(=O)O[C@H]1C(=O)[C@@]2(C)[C@H]([C@H](OC(=O)c3ccc([N+](=O)[O-])cc3)[C@]3(O)C[C@H](OC(=O)[C@H](O)[C@@H](NC(=O)c4ccccc4)c4ccccc4)C(C)=C1C3(C)C)[C@]1(OC(C)=O)CO[C@@H]1C[C@@H]2O,inactive: > 25 µM
3,COC(=O)c1nc(C(=O)OC)c2c([nH]c3ccccc32)c1C(=O)OC,inactive: > 100 µM
4,CC(C)c1cc2c(cc1S(=O)(=O)O)[C@@]1(C)CCC[C@@](C)(C(=O)O)C1CC2 (some centres not stated),inactive: > 100 µM
5,C=[N+](CNC(=O)CNC(=O)C(Cc1ccccc1)NC(=O)OC(C)(C)C)C(=O)CNC(=O)C(Cc1ccccc1)NC(=O)OC(C)(C)C (configuration not stated),inactive: > 100 µM
6,O=C1C=C(Nc2ccccc2C(=O)CC(=O)C(=O)Nc2ccc(Cl)c(Cl)c2)c2ccccc2C1=O,inactive: 47.5 µM
7,COc1ccc(CCc2cc(OC)c(OC)c(OC)c2)cc1,active: 0.14 µM
8,O=C1c2ccccc2C2CNC1(O)c1ccccc12 (configuration not stated),inactive: > 100 µM
9,CC(C)(C)NC(NC(C)(C)C)=C(/C=C(/Cl)[N+](=O)[O-])[N+](=O)[O-],inactive: > 100 µM
10,O/N=C1/CCCC/C1=C\c1ccc(Cl)c(Cl)c1,inactive: 27.5 µM
11,O=C1C=C(O)C(=O)c2c(O)ccc(O)c21,inactive: > 100 µM
12,CC[C@]12C=CCN3CCC4(c5cc([C@@]6(C(=O)OC)CC7CN(CCc8c6[nH]c6ccccc86)C[C@@H]6CCC[C@H]76)c(OC)cc5N(C)C4[C@](O)(C(=O)OC)C1OC(C)=O)C32 (some centres not stated),active: 0.457 µM
13,CC1(C)CC(=O)c2c(nc3c(ccc4ccccc43)c2-c2ccc(NC(=O)CCC(=O)Nc3ccc(-c4c5c(nc6c4ccc4ccccc46)CC(C)(C)CC5=O)cc3)cc2)C1,inactive: > 100 µM
14,Brc1ccc(/N=c2/nc3ccccn3n3nc(-c4ccccc4)cc23)cc1,inactive: 30.1 µM
15,CCOC(=O)c1cc2c3c(c(C(C)=O)c(O)c2[nH]1)N(CC(C)CC)CC3 (configuration not stated),inactive: > 100 µM
16,O=S(=O)(Oc1ccc2oc3ccccc3c2c1-c1c(OS(=O)(=O)C(F)(F)F)ccc2oc3ccccc3c12)C(F)(F)F,inactive: > 100 µM
17,NNC(=O)CCC(=O)Nc1cc(Cl)c(Cl)cc1Cl,inactive: > 100 µM
18,O=C(O)C1C2CCC(O2)C1C(=O)N1CCCCC1 (configuration not stated),inactive: 23.3 µM
19,C/C=C1/CCC2c3[nH]c4ccccc4c3CCN2C1 (configuration not stated),inactive: > 100 µM
20,CC1=C(C)CC2(SC1)C(=O)c1ccccc1C2=O,inactive: > 100 µM
21,CC(C)c1ccc2c(c1)CCC1C(C)(CN)CCCC21C (configuration not stated),inactive: 1.71 µM
